From paper PMC12136788
This is one part of the list.

B1: chr5:69964302:69964303:+_ENSMUSG00000029208_ENSMUST00000154728|mus_mus|motif|central (ssRNA)
RNA: GGGAGUUCUACAGUCCGACGAUCCAGUAUCAAGACUUUUUCUUGGAGUAAUGUAUUUUUCAGUUUGUUAUGAACAUGAAACGGAUCCAUUUAUUAGCUGUGUCAUUUAGGUAUGUUUAGUUAAUAGCUUCUAAUUUAUUAACACAACAGAGGAUUGAGCAUCA
B2: chr19:8913615:8913616:-_ENSMUSG00000071658_ENSMUST00000096259|mus_hu|mus_mus_mus_hu_False|88_98 (ssRNA)
RNA: GGGAGUUCUACAGUCCGACGAUCAGGGUACCAAAACACCCUGCCUCAGAUAGGUGCCCCACCCAGUAGGGAGUUGCAGCUGAAAGUAUCUGAUGCAGAAGCAGUGACUAUACGAAAGGAGGCCCCUGGGGAGGGCCAGGCCAGCAACAGAGGAUUGAGCAUCA
B3: chr16:64763996:64763997:-_ENSMUSG00000059920_ENSMUST00000076991|mus_mus|FALSE|FALSE (ssRNA)
RNA: GGGAGUUCUACAGUCCGACGAUCAGGCUUUUUAAGAAUUCAAAAAUUCAAUAUGAAAGAUAGCUUUUUAAAAAACCUUUCUAUAGCAGUAACACAAAUAGCCCAUGGAUUGUUUUUAAUCUUAUGCUUUUCUCAGGGCAUUUACAACAGAGGAUUGAGCAUCA
B4: chr3:9412954:9412955:+_ENSG00000134077_ENST00000452837|hu_mus|hu_hu_hu_mus_False|68_68 (ssRNA)
RNA: GGGAGUUCUACAGUCCGACGAUCGGUUGAUAUCUCUUCUUUGAUGGCUGGAUUUUCAUAAUAGUCCAAGAUAUGAGAAUCUGAAGUGCUGCUGGCAUGCUUUUUCUUACCAUCUUUCUCAUCUGCUUUGUCUCCUUGUCCACACAACAGAGGAUUGAGCAUCA
B5: chr2:163839828:163839829:+_ENSMUSG00000018326_ENSMUST00000018470|mus_mus|FALSE|FALSE (ssRNA)
RNA: GGGAGUUCUACAGUCCGACGAUCGGAGUUGGACACCGUGGUUUGUUUAUUUUCUCCGGAUGCAACUUCAGAAAGAUACCUAAAGUAGUCUCCUUUCAUUUUUAAGUAGAACACUUUGCUUUCUGCCUGGGUGGCAUUGAGAAUCAACAGAGGAUUGAGCAUCA
B6: chrX:71549762:71549763:+_ENSMUSG00000019087_ENSMUST00000019231|mus_mus|mus_mus_mus_hu_False|18_38 (ssRNA)
RNA: GGGAGUUCUACAGUCCGACGAUCAAACCCGUGUACUUCUUAUUGUUAGCACAACAUCACCAGAAAACGAUAACGACAGCCAAGCAGGACAGACAGUCAAGUAGUCUUUCCACACUCCGCAAAUUCAGGAGCCCUAUAACCUUACAACAGAGGAUUGAGCAUCA

What follows are binders tested against T1, UNK ZnF1-3 (human, UniProt Q9C0B0 31-174) (assay: nsRBNS (natural sequence RNA bind-n-seq); RBNS binding buffer (assumed for nsRBNS): 25 mM Tris pH 7.5, 150 mM KCl, 3 mM MgCl2, 0.01% Triton X-100, 500 ug/ml BSA, 20 U/ml SUPERase-In, 4 C; UNK is unkempt and MSI1 is Musashi-1; names of the RNAs are library labels; protein concentration not given here; high values mean tight binding).
T1 sequence: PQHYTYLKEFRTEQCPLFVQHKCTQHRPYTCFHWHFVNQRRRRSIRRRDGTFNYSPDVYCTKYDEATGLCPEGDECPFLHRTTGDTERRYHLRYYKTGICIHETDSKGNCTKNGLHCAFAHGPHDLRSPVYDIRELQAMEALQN
B1 was tested, and the binding signal was 0.881 enrichment R. Binder B2 has a binding signal of 1.41 enrichment R. B3 gave a binding signal of 1.02 enrichment R. B4 gave a binding signal of 0.539 enrichment R. Binder B5 has a binding signal of 0.646 enrichment R. B6 was tested, and the binding signal was 1.03 enrichment R.
